Test results taken from PubChem BioAssay AID493035 (The Scripps Research Institute Molecular Screening Center, 2011).
“And” between values parts separate entries of the source, which are not always exact repeats. Equal values may be shown once. Among all 2,000 compounds or so, about 45 (2%) were called active.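 Rule for the calls: active = inhibition above the mean of all tested compounds plus 3 SD (cut at about 49% in these data); inactive = the rest.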 Some of the results follow.

The molecules below were run against Perilipin-5 (Homo sapiens) + 1-acylglycerol-3-phosphate O-acyltransferase ABHD5 (Homo sapiens) (UniProt Q00G26+Q8WTS1) (assay: blockers of ABHD5 binding to perilipin-5 – cell lysate, split luciferase complementation, luminescence, NIH validation set, pilot screen (AID 493035;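 note: 0% = DMSO only wells while the 100% control is not stated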)). Settings: split G. princeps luciferase complementation, lysates, 4 h; at 7.9 µM, hits give high values.
Sequence of UniProt Q00G26 (Q00G26 whole entry, looked up): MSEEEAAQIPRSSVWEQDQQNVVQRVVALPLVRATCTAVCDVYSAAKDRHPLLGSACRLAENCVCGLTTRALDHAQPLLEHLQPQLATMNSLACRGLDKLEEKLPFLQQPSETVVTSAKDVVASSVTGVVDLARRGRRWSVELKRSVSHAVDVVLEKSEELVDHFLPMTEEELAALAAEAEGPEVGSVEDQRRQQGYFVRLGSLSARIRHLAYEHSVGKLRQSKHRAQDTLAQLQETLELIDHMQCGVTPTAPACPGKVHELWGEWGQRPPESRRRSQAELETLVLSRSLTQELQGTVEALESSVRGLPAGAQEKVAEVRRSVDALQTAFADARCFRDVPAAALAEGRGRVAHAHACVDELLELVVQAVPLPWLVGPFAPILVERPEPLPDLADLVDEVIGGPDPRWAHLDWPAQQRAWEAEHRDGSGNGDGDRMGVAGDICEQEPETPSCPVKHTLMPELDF
Sequence of UniProt Q00G26 (Q8WTS1 whole entry, looked up): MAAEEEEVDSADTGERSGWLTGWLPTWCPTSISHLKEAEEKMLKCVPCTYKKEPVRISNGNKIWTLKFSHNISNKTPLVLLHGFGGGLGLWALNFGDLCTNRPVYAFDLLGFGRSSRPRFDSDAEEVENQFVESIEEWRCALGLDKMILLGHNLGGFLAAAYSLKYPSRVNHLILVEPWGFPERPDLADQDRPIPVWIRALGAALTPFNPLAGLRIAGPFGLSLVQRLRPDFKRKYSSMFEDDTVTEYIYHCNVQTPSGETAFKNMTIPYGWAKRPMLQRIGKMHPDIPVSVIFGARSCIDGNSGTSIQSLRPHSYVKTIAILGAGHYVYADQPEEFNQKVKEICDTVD

| SMILES | inhibition |
| --- | --- |
| CC(=O)[C@H]1CC[C@H]2[C@@H]3CCC4=CC(=O)CC[C@]4(C)[C@H]3CC[C@]12C | inactive: -6.5% |
| Cc1ccc2[nH]c3c(=O)n(CCc4cnc[nH]4)cnc3c2c1 | inactive: 5.31% |
| COC(=O)C1=CN(Cc2cccs2)C=C(C(=O)OC)C1c1cccc(Cl)c1 | inactive: 11.4% |
| CC(C)NC[C@@H](O)c1ccc(O)c(O)c1 | inactive: -7.49% |
| C[C@]12CC[C@@H]3c4ccc(O)cc4CC[C@H]3[C@@H]1CC[C@@H]2O | inactive: -0.69% |
| COc1cccc(OC)c1C(=O)Nc1nc2ccc([N+](=O)[O-])cc2s1 | inactive: -1.63% |
| CCC[C@@H]1C[C@@H](C(=O)N[C@H]([C@@H](C)O)[C@H]2O[C@H](SC)[C@H](O)[C@@H](O)C2O)N(C)C1 (stereo partly specified) | inactive: -8.98% |
| CCCN(CCC)S(=O)(=O)c1ccc(C(=O)O)cc1 | inactive: 2.31% |
| COc1ccc(C2NC(C(=O)O)Cc3c2[nH]c2ccccc32)cc1CN1CCN(c2ccc(F)cc2)CC1 (stereo unspecified) | inactive: 5.31% |
| CSCCC1NC2(C(=O)Nc3ccc(Cl)cc32)[C@@H]2C(=O)N(C3CCCC3)C(=O)[C@H]12 (stereo partly specified) | inactive: -0.95% |
| CN1C2CCC1CC(OC(c1ccccc1)c1ccccc1)C2 (stereo unspecified) | inactive: -1.59% |
| C[C@H](NC(=O)OC(C)(C)C)C(=O)NCC1CCC(C(=O)O)CC1 (stereo partly specified) | inactive: -9.95% |
| COc1cccc(N2CC(O)=C(c3nc4ccccc4c(=O)[nH]3)C2=N)c1 | inactive: 13.7% |
| NC(N)=NC(=O)Cc1c(Cl)cccc1Cl | inactive: -2.36% |
| CC/C(=C(\c1ccc(O)cc1)c1ccc(OCCN(C)C)cc1)c1ccccc1 | inactive: -3.93% |
| NCCc1cnc[nH]1 | inactive: -1.98% and inactive: -10.4% |
| COc1ccc(OC)c(S(=O)(=O)N2CCCc3ccccc32)c1 | inactive: -3.37% |
| O=C(c1ccccc1)N1CCN(C(=O)c2ccccc2)CC1 | inactive: -4.51% |
| NCCCC(=O)O | inactive: 1.05% |
| NS(=O)(=O)c1cc2c(cc1Cl)NC(C(Cl)Cl)NS2(=O)=O (stereo unspecified) | inactive: 3.18% |
| c1ccc(Nc2ccccn2)nc1 | inactive: -4.92% |
| CC(C)CCn1c(N2CCc3ccccc3C2)nc2c1c(=O)[nH]c(=O)n2C | inactive: 7.1% |
| CC(C)[N+](C)(CCOC(=O)C1c2ccccc2Oc2ccccc21)C(C)C | inactive: 4.51% |
| c1cc2c(cc1C1CCCCC1)c1c3n2CCN=C3CCC1 | inactive: 1.07% |

| SMILES | inhibition |
| --- | --- |
| Cc1ccc2c(c1C)NC(C(=O)O)C1CC=CC21 (stereo unspecified) | inactive: 6.49% |
| COc1cccc2c1C(=O)O/C2=C/c1ccc2c(c1)OCO2 | inactive: 10% |
| CC(C)CC(=O)Nc1ccc2oc(-c3ccncc3)nc2c1 | inactive: -8.82% |
| CCN(Cc1ccncc1)Cc1nc(Cc2ccccc2Cl)no1 | inactive: -1.62% |
| CCCC(=O)O[C@]1(C(=O)CCl)[C@@H](C)C[C@H]2[C@@H]3CCC4=CC(=O)C=C[C@]4(C)[C@@]3(F)C(=O)C[C@@]21C | inactive: -2.79% |
| CCOc1ccc2ccccc2c1C(=O)N[C@@H]1C(=O)N2[C@@H]1SC(C)(C)[C@@H]2C(=O)O | inactive: -1.36% |
| COc1cc2c(cc1OC)C1(CCCC1)CNC2c1cccc([N+](=O)[O-])c1 (stereo unspecified) | inactive: -1.68% |
| Cn1c(=O)c2c(nc(SCCN3CCCCC3)n2C)n(C)c1=O | inactive: -9.84% |
| CCN(CC)CCNC(=O)c1cc(Cl)c(N)cc1OC | inactive: 3.79% |
| CCc1ccc(/C=C2\Oc3cc(OC(=O)N4CCOCC4)ccc3C2=O)cc1 | inactive: 17.7% |
| [N-]=[N+]=NC1C[C@H](n2ccc(=O)[nH]c2=O)O[C@@H]1CO (stereo partly specified) | inactive: -13.5% |
| COc1ccc(S(=O)(=O)NCc2ccco2)c2ccccc12 | inactive: -2.66% |
| CC1=NN(c2ccccc2)C(=O)C1 | inactive: 20.4% |
| COc1ccc(CCNC(=O)c2c(O)c3c([nH]c2=O)CCCC3)cc1 | inactive: 1.95% |
| O=C(O)CCNC(=O)c1ccccc1 | inactive: -9.9% |
| Cc1oc2c(O)c(O)ccc2c(=O)c1-c1ccccc1 | inactive: -3.74% |
| Cc1nc(N)sc1C(=O)N/N=C/c1ccco1 | inactive: -0.45% |
| Cc1ccc(S(=O)(=O)N[C@@H](Cc2ccccc2)C(=O)CCl)cc1 | active: 84.4% |
| COc1ccc(OCC(=O)N2c3ccc(C)cc3C3CN(C)CCC32)cc1 (stereo unspecified) | inactive: -2.28% |
| COc1cccc(CN2CCN(C(=O)c3ccc(-c4ccccc4)cc3)CC2)c1 | inactive: -4.19% |
| C1CCC(C(CC2CCCCN2)C2CCCCC2)CC1 (stereo unspecified) | inactive: -10% |
| Clc1ccc(OCCCN2CCCCC2)c(Br)c1 | inactive: 7.02% |
| CC(=O)[C@@]1(O)CC[C@H]2[C@@H]3C[C@H](C)C4=CC(=O)C=C[C@]4(C)[C@@]3(F)[C@@H](O)C[C@@]21C | inactive: -8.96% |
| CCc1nc(N)nc(N)c1-c1ccc(Cl)cc1 | inactive: -11% |

| SMILES | inhibition |
| --- | --- |
| O=C(NCCc1cccc(F)c1)[C@@H]1CSC2c3ccccc3C(=O)N21 (stereo partly specified) | inactive: 11.8% |
| CC(C)NCC(O)COc1ccc(CCOCC2CC2)cc1 (stereo unspecified) | inactive: -2.02% |
| CCOc1cc(C)cc2oc(=O)cc(-c3ccccc3)c12 | inactive: -6.39% |
| OC[C@H]1O[C@@H](n2cnc3c(NC4CCCC4)ncnc32)[C@H](O)[C@@H]1O | inactive: -7.75% |
| C1COC(NC(C2CC2)C2CC2)=N1 | inactive: 12.9% |
| NC(N)=N/N=C/c1ccc(OS(=O)(=O)c2ccccc2)cc1 | inactive: -1.57% |
| COC1CCN(C(=O)c2ccc(OC3CCN(Cc4ccccn4)CC3)cc2)CC1 | inactive: 0.85% |
| O=C1c2ccccc2C(=O)N1/N=C/c1ccc(Oc2ccc([N+](=O)[O-])cn2)cc1 | inactive: -2.07% |
| COc1ccc(CCN=C(N)C(C)c2ccccc2)cc1OC (stereo unspecified) | inactive: -12.5% |
| CCN(CC)CCCNC(=O)C1c2ccccc2Oc2ccccc21 | inactive: -3.25% |
| Cc1ccc(S(=O)(=O)Nc2ccc(S(=O)(=O)Nc3cc(C)nc(C)n3)cc2)cc1 | inactive: 4.03% |
| CCC(CO)NCCNC(CC)CO (stereo unspecified) | inactive: -3.49% |
| CC(C)[C@H]1CN(C)CCN1Cc1cn(C)nc1-c1cccc(Cl)c1 | inactive: -6.99% |
| CC1CCN(CCOCCOc2ccccc2Br)CC1 | inactive: -1.54% |
| CC(C)C(=O)Nc1c(O)c2ccccc2[nH]c1=O | inactive: -10.7% |
| O=C(Nc1c(C(=O)O)[nH]c2ccccc12)NC1CCCCC1 | inactive: 0.67% |
| CC1(C)CC(=O)c2c(nc3ccccc3c2N)C1 | inactive: -10.3% |
| COC(=O)c1cc(C(=O)NCCC(C)C)cc([N+](=O)[O-])c1 | inactive: -16.4% |
| COc1cccc(-n2cc(CNCc3c(C(=O)N(C)C)nc4ccc(Cl)cn34)cn2)c1 | inactive: 9.08% |
| COC(=O)c1ccc2c(c1)C(=O)/C(=C/c1ccc(O)cc1)O2 | inactive: 6.49% |
| CNS(=O)(=O)c1ccc(C)cc1 | inactive: -16.6% |
| CN(C)C(=O)C12CCC(C)(c3nc4ccccc4nc31)C2(C)C (stereo unspecified) | inactive: -12.6% |
| C/C(=N\NC(=O)C1(C)CC1(Br)Br)c1ccc([N+](=O)[O-])cc1 (stereo unspecified) | inactive: -8.2% |
| c1cnc(N2CCN(Cc3ccc4c(c3)OCO4)CC2)nc1 | inactive: 0.11% |

| SMILES | inhibition |
| --- | --- |
| O[C@H]1COC2C1OC[C@@H]2O (stereo partly specified) | inactive: -7.45% |
| CCc1cccc2c1NC1(CCCC1)CC2C (stereo unspecified) | inactive: -7.15% |
| O=C(COc1ccc2ccc(=O)oc2c1)c1ccccc1 | inactive: -3.28% |
| COc1ccc(OCc2cccc(C(=O)NN)c2)cc1 | inactive: 1.06% |
| C/C(=N\NC(=O)c1ccccc1[N+](=O)[O-])c1ccc(Br)s1 | inactive: -7.54% |
| NC(N)=NC(N)=NCCc1ccccc1 | inactive: -11.9% |
| CC(NC(=O)c1cccnc1)C(=O)O (stereo unspecified) | inactive: -15.1% |
| CC(C)OC(=O)CC1C(=O)NCCN1C(=S)NC(=O)c1cccs1 (stereo unspecified) | inactive: -6.51% |
| C(=C\c1ccccc1)/CN1CCN(C(c2ccccc2)c2ccccc2)CC1 | inactive: 2.11% |
| Cc1ccc(OCCCCn2ccnc2C)c(C)c1 | inactive: -2.15% |
| CCOC(=O)C1C(=O)OC2(CCOC(C)(C)C2)C1C(=O)OCC (stereo unspecified) | inactive: -6.14% |
| CCOC(=O)C(NC(=O)CCC(=O)Nc1ccc(S(N)(=O)=O)cc1)C(O)c1ccccc1 (stereo unspecified) | inactive: -0.83% |
| CC(=O)NC1C(OCCOc2ccc(Cl)cc2Cl)OC(COC(C)=O)C(OC(C)=O)C1OC(C)=O (stereo unspecified) | inactive: -5.93% |
| Cn1c(=O)c2c(ncn2Cc2ccccc2)n(C)c1=O | inactive: -12.1% |
| C=CCc1cc(Cl)ccc1OCCOCCN(C)C | inactive: -6.55% |
| O=c1c(-c2ccc3c(c2)OCCO3)coc2cc(OC3OC(CO)C(O)C(O)C3O)ccc12 (stereo unspecified) | inactive: -6.25% |
| Cc1cccc(N2CCN(C(=S)c3ccccc3)CC2)c1 | inactive: -7.24% |
| O=c1ccc2c(o1)/C(=C/C=C(Cl)Cl)CCC2 | inactive: 2.59% |
| Nc1nc2ccc(OC(F)(F)F)cc2s1 | inactive: -0.16% |
| CC(C)CN1CCN(Cc2ccc(C#CC(C)(C)O)cc2)CC1CCO (stereo unspecified) | inactive: 1.45% |
| COc1ccc2c(c1)c(CC(=O)O)c(C)n2C(=O)c1ccc(Cl)cc1 | inactive: -6.43% |
| COC(=O)c1cc(OC)c(OC)cc1NC(=O)CN1C(=O)c2ccccc2C1=O | inactive: -8.74% |
| Cc1ccc(S(=O)(=O)NC(C(=O)Oc2ccc3c(C(F)(F)F)cc(=O)oc3c2)c2ccccc2)cc1 (stereo unspecified) | inactive: -12.5% |
| CN(C(=O)C(Cl)Cl)c1ccc(OC(=O)c2ccco2)cc1 | inactive: 2.13% |
